From the supplement of paper PMC11417369
± gives the standard deviation of the averaged measurements. This is one part of the list.

Tested on: PfAP2-G AP2 domain (GST-tagged)
Assay: gcPBM binding intensity (ln(normalized median fluorescence intensity)); higher = stronger DNA binding
Method in brief: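 Binding intensity is defined as the maximum Masliner-normalised natural-log median intensity across replicate spots for either probe orientation. It was measured on an Agilent 4 × 180k array of primer-extended double-stranded 36-bp intergenic genomic probes and negative controls, to which GST-tagged P. falciparum DNA-binding domains made in E. coli were applied for 1 h in 1× PBS with 1% milk, 0.2 mg/ml BSA, 0.5% salmon testes DNA and 0.03% Triton X-100. Detection was by Alexa488 anti-GST antibody and scanning at 488 nm.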

| Sequence | gcPBM binding intensity (ln) |
| --- | --- |
| TTACATGTACAAAAGTTGCACTTCATACACTTTTAT | 11.1 ± 0.61 |
| ATTCTATATATGTGCACACAAAAGATATATATATAT [CACACA_site2124] | 10.7 ± 0.48 |
| CGAAGGTTTGGCCATGCATGTTATAAGAATATATGT [TGCATGCA_site441] | 10.14 ± 0.064 |
| AATATAAAATAATGCACACATAAACAAAAAATCAAA [CACACA_site1371] | 10.1 ± 0.078 |
| TCATTTCAATACACAAGTACGTATATGGTTATATTG [XGTACX_site6021] | 11.2 ± 0.6 |
| CATATGTATATGACTACACACAAGGGTGTACATATA [CACACA_site1164] | 11.6 ± 0.93 |
| ACATGAAGATATTTTTGTCCGTACAAATTCATATGA [XGTACX_site1837] | 11.4 ± 0.97 |
| TTTCCAAATTGTTGACGGACACTCACGAATAGTTAT [XGTACX_site5720] | 11.3 ± 0.64 |
| TACGTTATGTTGAATAGTACAATTTGGTGAACAGGT [XGTACX_site1729] | 11 ± 0.55 |
| GTCCTCATCCACTATGCACACAAAAAAGAAATACAC [CACACA_site9131] | 10.7 ± 0.54 |
| TTTTTTTTTTTTTTTTGTACACAAATTTATTGTCTA [XGTACX_site2680] | 11.3 ± 1 |
| AGTATATCAAAATACATACACACATTTGTATATACA [CACACA_site2697] | 9.955 ± 0.064 |
| TGAATTCGTCAAAAGCGTACATATAATATCTTCTTG [XGTACX_site8842] | 11.4 ± 0.67 |
| ACATATATATATATATATAATATTTTATATTTATTA [CACACA_negctrl_site713] | 10.1 ± 0.39 |
| TTATAAAAATAATATCGTACAAATGATAAAGATTAA [XGTACX_site4893] | 11 ± 0.38 |
| ATATTTTTTTATAAATGTACAAAAATAATATTGCAT [XGTACX_site7399] | 10.7 ± 0.52 |
| AAAATAATGTTTATATGTACATATATATATATATAT [XGTACX_site8815] | 11 ± 0.57 |
| CCATTTACCCTTGCCATGCACACTTTTTTATAGAAA [CACACA_site3505] | 10.5 ± 0.3 |
| TATATAGTAATATATACACACACTTGTCTTGTAAAA [CACACA_site990] | 10.1 ± 0.21 |
| AAAATTTCAATAAATACACACATATATATATATATT [CACACA_site1685] | 9.99 ± 0.16 |
| AAATAATATATGAATGCACACAGTAAAAATTAAAGA [CACACA_site2252] | 10.1 ± 0.13 |
| ATATATACCTAAGACACACACATATAGATTTATATA [CACACA_site6498] | 9.97 ± 0.028 |
| TTCTTTGTGGTATAGATACACACTATATTAATATGA [CACACA_site2150] | 10.4 ± 0.2 |

| Sequence | gcPBM binding intensity (ln) |
| --- | --- |
| ATTTTAGATATCCTGCGTACACAAATTGCTTTATTT [XGTACX_site7149] | 11.6 ± 0.76 |
| AAGATTAATATTTTATGTACATATGTAATATATATG [XGTACX_site4367] | 11.2 ± 0.69 |
| ATATTTTTATGATGTATCCAAGAAATGGAACTATAT [CACACA_negctrl_site1268] | 10.2 ± 0.27 |
| AAGAATACACCACGCACACACACTTGAGAAAAAATA [CACACA_site3828] | 10.5 ± 0.45 |
| TATCTTATTTTAAAAGTGCATGGAAAGGGGTTTTTG | 10.2 ± 0.16 |
| TGTATAAGTGCCGTTATACACACGTTATATAAATAT [CACACA_site438] | 10.005 ± 0.007 |
| TTTGAAATAAAAAGGTGTACACTCGATTAATAAATA [XGTACX_site6943] | 11.8 ± 0.98 |
| ACTATCATTTTTTTAACACACAAAAAAAATAAAATA [CACACA_site3519] | 10.1 ± 0.3 |
| TTTTAGCACTTATTATAAGATATCAAAAAGATGGGT [XGTACX_negctrl_site325] | 10.12 ± 0.085 |
| ATAAATTTATATACTTGTACATATATATATTACATA [XGTACX_site6697] | 11.1 ± 0.57 |
| TATATATACATATACACACACACACCCATATATATA [CACACA_site2246] | 10.1 ± 0.2 |
| GAATATAAAAAAGAATGTACTTGAACAGTCCTAAAA [XGTACX_site745] | 10.9 ± 0.59 |
| ACATGTGAAGGGAACATAAATTGGGGTTTTATATTG [XGTACX_negctrl_site508] | 10.4 ± 0.12 |
| AAATTATAAATAATTTGTACATAAAAATTGGTAAAG [XGTACX_site5197] | 11 ± 0.44 |
| ATGTAGTCTCAAGACTGTACAAACAAGTAAATAAAA [XGTACX_site4120] | 10.8 ± 0.4 |
| TTTTTTATATTAAATGAAGAATATACAAAATTTTAA [CACACA_negctrl_site558] | 9.87 ± 0.24 |
| TTTTGTTAGTTTTTTTTCTTATATTACATTTTCACG [CACACA_negctrl_site1466] | 9.96 ± 0.18 |
| AAAGGAAGAAAAAATAGTACATATATATATATATAA [XGTACX_site766] | 11.2 ± 0.87 |
| ACAATTTTATTTAAAGTGCATGTAAAATTAAAACTT | 10.2 ± 0.18 |
| TATACATTTATGTACACACACATATATGTATATTTA [CACACA_site2966] | 11.4 ± 1 |
| AATAAATATCAATACACACACACAAAAGTGAATAAA [CACACA_site3763] | 10.1 ± 0.14 |
| TCCATCCACATATATGTACACACATATATATATATA [CACACA_site8970] | 11.6 ± 0.89 |
| GTTAAGGGTATATATACACACATATGTAATACATGA [CACACA_site5650] | 10.2 ± 0.23 |

| Sequence | gcPBM binding intensity (ln) |
| --- | --- |
| CAATTTTTCTATCATTGTACTTTTATATAATAGTGT [XGTACX_site1810] | 11.4 ± 0.94 |
| AATTGTTCTATGATTTGTACACACTTTTTTTTAAAA [XGTACX_site5984] | 11.4 ± 0.85 |
| ATTATAAATACACGCACACACACTTATATATATATA [CACACA_site5776] | 10.5 ± 0.3 |
| AAAAAATTGACTAATGCACACAATTACATATATATA [CACACA_site1689] | 10.1 ± 0.21 |
| AAATAGTAAATAAGGGGTACAAAAAAAAAAAAAAAA [XGTACX_site8362] | 11.4 ± 1 |
| ATGAAATATATTATATGTACATATTTATTTTTTATA [XGTACX_site7319] | 11.3 ± 0.91 |
| ATTTTTTACGTATAGTACAAAGTTTTATGATACATA [CACACA_negctrl_site965] | 10.8 ± 0.45 |
| CATTATAAAAAATAAAAAAGAAATAATTGTATATGC [CACACA_negctrl_site478] | 9.985 ± 0.064 |
| TAATATTGCAAATATAAAAAAAAATAAACCATATAT [XGTACX_negctrl_site458] | 10.06 ± 0.021 |
| TTCTTTTTTAACAACAAAAAAAAAAAAAAAAAAAAA [TGCATGCA_negctrl_site87] | 9.68 ± 0.47 |
| AAGGAGAAATAAATATTAAAAAATTTATATATATAT [CACACA_negctrl_site1801] | 9.74 ± 0.38 |
| TAAACCTGTAGAGATGCATGCATTGTTAACATGGTG [TGCATGCA_site515] | 9.895 ± 0.007 |
| TTTTTTGCTTTCAACACACATACAATCTATATAATC [CACACA_site4125] | 10 ± 0.19 |
| TTAATTATGGACAGGGTGCACATGAATAATAATACC | 10.9 ± 0.57 |
| TATATTATAATAAGACGTACAAGGATGTTAAAACTT [XGTACX_site5828] | 11.6 ± 1 |
| GTTTGTATGTCCAAATGTACATATGATTTTATGAAA [XGTACX_site6595] | 11.2 ± 0.76 |
| TACATTAACGGATTATTTCTCAATACAACATCATTT [CACACA_negctrl_site981] | 9.925 ± 0.064 |
| AAAATATTAATTAATACATGCATATATATATATATA [TGCATGCA_site585] | 10.2 ± 0.49 |
| TATATTGTATAAAAATGTACATGCAATAAATTTAGT [XGTACX_site5621] | 11.2 ± 0.64 |
| AAAAAATATTGAAGTACACACATTATAAACTTTTTT [CACACA_site5029] | 11.5 ± 0.76 |
| ACCTAATTCAAATACAGTACATATACAATATATATA [XGTACX_site2779] | 11.1 ± 0.67 |
| AAAATTAAAAATTACTGTACGTATTAGAGAATAAAT [XGTACX_site2567] | 11.6 ± 1 |
| TTCTTAAATGTAAATGTATATGTATTAAAAAGAGAA [TGCATGCA_negctrl_site597] | 9.91 ± 0.18 |

| Sequence | gcPBM binding intensity (ln) |
| --- | --- |
| TTATAATATTAATGTGCACACAATTAAAATATTATA [CACACA_site2046] | 10.4 ± 0.31 |
| TACTGTGTTTTGGTTGTACACACGCTACATTATATA [CACACA_site8863] | 11.5 ± 0.84 |
| AGGATATAAATATTCACACACACATGGAGATATATA [CACACA_site6317] | 9.825 ± 0.092 |
| ATAGTATACAGACACACACACACACCCATATATATA [CACACA_site1736] | 10.3 ± 0.23 |
| AAATAAATATATAATACACACAAAAATATAAAATGG [CACACA_site5943] | 10.16 ± 0.028 |
| TATAACTTTTTTATTACACACCTATGTAATATTATA [CACACA_site944] | 9.98 ± 0.057 |
| AACAGACATAGAAACACACATACATACATACATACA [CACACA_site2479] | 10.6 ± 0.25 |
| ATACTAAATGAACACACACACATATATATATATAAT [CACACA_site4232] | 10.1 ± 0.2 |
| AAGGGAAATATTGAAACACACACGAACCCACGTATT [CACACA_site252] | 10.165 ± 0.007 |
| ATGTTTTATATTTTTTTTTTGTTTGCTTGTTTCCTC [CACACA_negctrl_site870] | 9.84 ± 0.071 |
| TTATTTATTTATTATAGTTCACTTGAAAATACAAGA [CACACA_negctrl_site1480] | 9.96 ± 0.26 |
| CATATATACAGTAACACACACAAAAAAATATGAATA [CACACA_site3996] | 10.13 ± 0.057 |
| TTTCTTTTTAACTCTTACATAATAGGTGGTAGAAGG [TGCATGCA_negctrl_site176] | 10.3 ± 0.36 |
| TTGTTGTGTATTATCGTGCACATAATATAAAAGATT | 10.5 ± 0.47 |
| AATAGTGTCATAAAAACTATTATCATATAATGTGAA [CACACA_negctrl_site1578] | 9.87 ± 0.085 |
| TAATTTATAACACGCGCACACATATATATATAGTAA [CACACA_site121] | 10.5 ± 0.33 |
| AAAGACGTTTATAAATGTACATACACTTTAAAAGTT [XGTACX_site8753] | 11 ± 0.43 |
| CCCCATTTATCTTAAGCATGCCATGGTTTTAGATAT [TGCATGCA_site24] | 10.6 ± 0.42 |
| AAAAAATATAAAAAAACACACAAAAAAAAAAAAAAA [CACACA_site1382] | 9.62 ± 0.32 |
| TTCTTAAAAAATCAAACACACATATATAAATACATA [CACACA_site5301] | 10 ± 0.18 |
